# Reference: the supplement of paper PMC6206098
# ± gives the uncertainty stated by the source. The sequences are guide strands of siRNAs; only the seed at positions 2 to 7 varies.
# Columns and labels:
# 3LL = assay: cell viability relative to siNT1 control; higher = less toxic; details: concentration: 10 nM; 96 h; Mus musculus;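 further: Luminescence-based viability of cells reverse transfected in 384-well plates with lipid-complexed siRNAs built on a non-toxic 19mer backbone whose passenger strand carries 2′-O-methyl groups at positions 1 and 2, triplicates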
# H460 = assay: cell viability relative to lipid-only control; HeyA8 human ovarian and H460 human lung cancer; M565 mouse liver and 3LL mouse lung cancer; siNT1 is a non-toxic control siRNA; higher = less toxic; details: concentration: 10 nM; 96 h; Homo sapiens
# HeyA8 = assay: as above; details: concentration: 10 nM; 96 h; Homo sapiens
# M565 = assay: as above; details: concentration: 10 nM; 96 h; Mus musculus
# 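Wherever cell viability relative to lipid-only control is given: reverse lipid transfection in 384-well plates, in triplicate, of duplexes on a non-toxic 19mer backbone with passenger strand 2′-O-methylated at positions 1 and 2, luminescence viability read-out.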
Sequence,cell viability (3LL) [%],cell viability (H460) [%],cell viability (HeyA8) [%],cell viability (M565) [%]
UUGGAUAACAUGUAAACCAAA,95.8 ± 13,85.9 ± 15,96.3 ± 13,100 ± 20
UCCGCUUACAUGUAAACCAAA,115 ± 21,72.8 ± 17,64.9 ± 5.7,76.9 ± 11
UGCCUUAACAUGUAAACCAAA,94 ± 21,62.6 ± 4.5,54.9 ± 4,42.9 ± 11
UUUCUGUACAUGUAAACCAAA,22.2 ± 0.29,55.6 ± 7,69.2 ± 2.7,48.9 ± 3.6
UUACCAAACAUGUAAACCAAA,70.6 ± 6.9,67 ± 4.5,88.6 ± 0.52,85.4 ± 12
UCGCACGACAUGUAAACCAAA,94.6 ± 18,65.4 ± 1.6,85.3 ± 4,74 ± 10
UACUUCUACAUGUAAACCAAA,66.6 ± 7.8,61.1 ± 2.8,38 ± 4.1,56.8 ± 11
UCAGUCAACAUGUAAACCAAA,84.1 ± 9.8,57.4 ± 4,81.1 ± 2.9,47 ± 7.3
UGUAAUUACAUGUAAACCAAA,73.6 ± 12,65.4 ± 3.9,38.7 ± 1.2,58.2 ± 7.3
UCAGUACACAUGUAAACCAAA,54.8 ± 8.7,38 ± 6.1,38.4 ± 2.8,58.6 ± 8
UAAUUUUACAUGUAAACCAAA,107 ± 8.2,92.3 ± 5.1,86.11 ± 0.83,126 ± 14
UGCGACAACAUGUAAACCAAA,96.3 ± 10,73.1 ± 9.3,84.4 ± 3.4,81.6 ± 2.2
UCGAGGUACAUGUAAACCAAA,90.9 ± 25,75.6 ± 15,67.9 ± 0.8,29.4 ± 4.1
UCCUAGAACAUGUAAACCAAA,85.6 ± 15,69.6 ± 5.5,84.8 ± 4,79.1 ± 8.6
UGUAUACACAUGUAAACCAAA,93.1 ± 6.4,71.7 ± 5.2,76.9 ± 9.6,75.9 ± 4.2
UAUAACUACAUGUAAACCAAA,93.6 ± 15,78.3 ± 21,80.9 ± 11,87.6 ± 5.9
UAAUCGCACAUGUAAACCAAA,57.8 ± 3.4,60.2 ± 1.7,67.8 ± 3.5,82.1 ± 18
UGUUCAUACAUGUAAACCAAA,92 ± 6.1,86.6 ± 12,70.7 ± 3.6,35.6 ± 2.3
UGGGUACACAUGUAAACCAAA,90.5 ± 16,63.9 ± 11,31.7 ± 1.4,48.6 ± 11
UAGGAAUACAUGUAAACCAAA,92.2 ± 17,59.8 ± 12,69.3 ± 7.7,53.3 ± 9.7
UAAGUGGACAUGUAAACCAAA,66.3 ± 6.8,64.3 ± 12,56.2 ± 10,82.3 ± 10
UUCGAAAACAUGUAAACCAAA,108 ± 20,73.1 ± 17,91.1 ± 9,97 ± 2.4
UAGAUCUACAUGUAAACCAAA,65.8 ± 7.1,86.5 ± 12,65.9 ± 10,57 ± 4.7
UGUAAAUACAUGUAAACCAAA,92.4 ± 4.3,86.2 ± 2.7,68.2 ± 8,88.2 ± 15
UGCGACUACAUGUAAACCAAA,15 ± 6.5,63.4 ± 4.8,33.3 ± 2.6,44.3 ± 2.5
UGUUCGGACAUGUAAACCAAA,99.7 ± 10,81 ± 9.4,87.5 ± 8.8,54.7 ± 12
UCGAAGGACAUGUAAACCAAA,89.9 ± 17,74.8 ± 19,79.5 ± 6.7,76.7 ± 4.8
UACUAUGACAUGUAAACCAAA,102 ± 11,62.7 ± 6.5,87.2 ± 5.3,85.7 ± 6.7
UAUUGAAACAUGUAAACCAAA,95.8 ± 16,72.9 ± 4.8,88.2 ± 14,81.2 ± 14
UAGUAGAACAUGUAAACCAAA,81.3 ± 9.9,68.5 ± 14,76.1 ± 5.1,82.5 ± 9
